From PubChem BioAssay AID488969 (Vanderbilt High Throughput Screening Facility, 2010)
The full ranking holds about 110,000 compounds; the median of “z-score” is about -0.1, and the highest 2% start at about 2. The list shows a part of the results. Activity calls are given as the source filed them.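 The calls were made as follows: active = z-score in the third read window above 3 or below -3; inactive = the rest.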

target: Metabotropic glutamate receptor 8 (Rattus norvegicus) (UniProt P70579); test: rat mGluR8 modulators via GIRK flux, primary screen, cell-based, thallium flux, HTS (AID 488969); conditions: HEK293 rat mGluR8, GIRK (G protein-gated inwardly rectifying potassium channel) thallium flux, FluoZin2; at 10 µM; stronger effect = higher value; submaximal glutamate (EC20) added with thallium
Sequence of UniProt P70579 (P70579 whole entry, looked up): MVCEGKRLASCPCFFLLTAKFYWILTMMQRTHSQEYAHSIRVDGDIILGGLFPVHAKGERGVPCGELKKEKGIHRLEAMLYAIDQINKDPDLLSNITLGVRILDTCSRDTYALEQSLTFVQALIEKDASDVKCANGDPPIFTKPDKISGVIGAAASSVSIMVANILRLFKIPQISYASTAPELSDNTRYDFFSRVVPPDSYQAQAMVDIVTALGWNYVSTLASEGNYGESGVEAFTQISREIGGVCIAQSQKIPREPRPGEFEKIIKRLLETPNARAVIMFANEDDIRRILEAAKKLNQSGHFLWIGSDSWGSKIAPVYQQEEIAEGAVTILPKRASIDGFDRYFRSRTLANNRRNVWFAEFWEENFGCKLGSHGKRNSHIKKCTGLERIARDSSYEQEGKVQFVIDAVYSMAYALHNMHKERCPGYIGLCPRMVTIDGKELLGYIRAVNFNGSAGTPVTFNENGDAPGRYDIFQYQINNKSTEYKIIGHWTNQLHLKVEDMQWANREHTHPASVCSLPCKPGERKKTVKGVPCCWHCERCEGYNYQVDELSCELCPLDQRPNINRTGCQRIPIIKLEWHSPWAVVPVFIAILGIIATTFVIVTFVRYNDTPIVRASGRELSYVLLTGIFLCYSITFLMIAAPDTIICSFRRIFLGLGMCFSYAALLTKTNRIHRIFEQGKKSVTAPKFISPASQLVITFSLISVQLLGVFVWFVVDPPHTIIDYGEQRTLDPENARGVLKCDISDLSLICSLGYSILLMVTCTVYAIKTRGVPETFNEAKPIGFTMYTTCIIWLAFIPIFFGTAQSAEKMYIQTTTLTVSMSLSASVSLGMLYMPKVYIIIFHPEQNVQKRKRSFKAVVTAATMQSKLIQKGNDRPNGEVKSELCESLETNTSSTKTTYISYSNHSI

SMILES	z-score
CN(C)CCCN1C(=O)c2oc3ccccc3c(=O)c2C1c1cccs1 (stereo unspecified)	2.78
CCOc1ccc(-c2ccc(/C=C3/C(=N)N4C=CSC4=NC3=O)o2)c([N+](=O)[O-])c1	0.233
O=C(O)CCN1C(=O)/C(=C\c2ccc(-c3nc4ccccc4s3)o2)SC1=S	2.49
CN=C(Nc1ccc(Cl)cc1)c1cccc(C(F)(F)F)c1	0.181
O=C(c1cnn2c(C(F)F)cc(-c3ccccc3)nc12)N1CCN2CCCC2C1 (stereo unspecified)	-0.85
O=C(CSc1nccn1Cc1ccccc1)Nc1nccs1	-0.379
CC(C)Cc1c(O)nc(SCC(=O)Nc2ccc3c(c2)CCC3)[nH]c1=O	-1.43
COC(=O)c1ccc(NC(=O)CN2CCN(c3ccccc3)CC2)cc1	-0.224
COc1cc(-n2c(C)nc3cc(C(=O)NCCN4CCOCC4)ccc32)cc(OC)c1OC	-0.57
COc1ccc(C)cc1NC(=O)CN1C(=O)c2ccccc2S1(=O)=O	0.152
CSc1nnc(Nc2ccccc2C)s1	-0.0316
C=CCNc1oc(-c2cccs2)nc1C#N	-0.121
O=C(O)C1CSC(c2ccncc2)N1 (stereo unspecified)	-0.0727
Cc1cc(Cl)cc(Cl)c1OCCCCN(C)C	-0.393
COc1ccc(-c2n[nH]c(C)c2-c2ccc(Cl)cc2)c(O)c1OC	-0.612
COC(=O)c1cc(C)nc(N)c1C#N	-0.219
COc1ccc(C2(CCN)CC(C)N(C)CC2C)cc1 (stereo unspecified)	-0.133
O=C(O)c1coc2ccccc12	-1.06
COc1ccc(/C=N/NC(=O)CCCC(=O)NC2CCCCC2)cc1	-0.054
COc1ccc(Cn2c(N)c(S(=O)(=O)c3cccs3)c3nc4ccccc4nc32)cc1	-0.287
C/C(=N/NC(=O)CNc1ccc(C)cc1)c1ccc(Cl)cc1	-0.266
CCCCn1c(=O)[nH]c(=O)c2c1nc(-c1ccncc1)n2CCOC	-0.277
COc1ccc(N(CC(=O)N2CCCCC2)S(=O)(=O)c2ccccc2)c(OC)c1	-0.156
O=c1cnnc(NCc2ccccc2)[nH]1	0.139

SMILES	z-score
CC(SCc1ccccc1)C(=O)Nc1ccccc1-c1ccccc1 (stereo unspecified)	-0.65
Cc1onc(-c2ccccc2Cl)c1C(=O)NCCN1CCOCC1	0.0859
CC(C)CC(NC(=O)CCl)c1ccccc1 (stereo unspecified)	-0.113
O=C(NCc1ccco1)c1ccc(CS(=O)(=O)c2cccc(C(F)(F)F)c2)o1	0.295
COCCNC(=O)CSc1nc2cc3c(cc2c(=O)n1Cc1ccco1)OCO3	0.316
CCS(=O)(=O)c1ccc2oc(SCC(=O)NC34CC5CC(CC(C5)C3)C4)nc2c1	0.00733
CCOc1cc(/C=C2/NC(=S)NC2=O)ccc1OCc1ccc([N+](=O)[O-])cc1	-0.0197
O=C(CN(Cc1ccccc1)S(=O)(=O)c1ccc(S(=O)(=O)N2CCOCC2)cc1)Nc1ccccc1	-0.068
CC(=O)Nc1ccc(S(=O)(=O)N2CCN(Cc3cccnc3)CC2)cc1	0.0269
Cc1ccc(Cc2c(C)nc3c(C(=O)O)cnn3c2C)cc1	0.0858
C=CCOC(=O)C1=C(C)NC(C)=C(C(=O)OCC=C)C1/C=C/c1ccccc1	-0.324
CCOC(=O)c1cccc2c(=O)c(C(=O)c3ccc(Cl)cc3)c(C(=O)OC)[nH]c12	-0.264
Cc1cccc(CN(CC(=O)N/N=C/c2cccs2)S(=O)(=O)c2ccc(Cl)cc2)c1	0.833
Cc1cccc2c(=O)cc(C)n(CC(=O)N3CCCCC3)c12	active: 3.39
Cc1ccc(/C(C#N)=C\c2ccc(N3CCOCC3)o2)cc1	-0.0585
Cn1c(COc2ccccc2)nnc1SCC(=O)Nc1ccc(S(N)(=O)=O)cc1	-0.284
O=C1C2CC=C(Cl)CC2C(=O)N1c1ncn[nH]1 (stereo unspecified)	-0.208
O=S(=O)(Nc1ccc(N2CCOCC2)cc1)c1cccs1	-0.527
Cc1ccccc1C(=O)c1cccn1CC(=O)NCCN1CCN(c2cccc(C)c2C)CC1	1.1
CCCCSc1nnc(-c2ccc(C)cc2)o1	0.892
Cc1c(C(=O)N2CCN(c3ccc(F)cc3)CC2)sc2nc(-c3ccccc3)cn12	-0.0686
O=C(NCCN1CCOCC1)c1cccc(Cl)c1	-0.187
CCN(CCC(=O)Nc1ccc(Br)c(C)c1)Cc1ccccc1	0.441
CCCCCCC(=O)N1CCC(c2nc3c(nnn3Cc3ccccc3Cl)c(=O)[nH]2)CC1	-0.0143

SMILES	z-score
Cc1cccc(NC(=O)CN2CCC(NC(=O)C3CCCCC3)CC2)c1C	-0.296
Cc1ccccc1C(=O)NC1CCN(C(=O)N(c2ccccc2)c2ccccc2)CC1	-0.364
COC(=O)C1=C(C)NC(=O)C1(NS(=O)(=O)c1ccc(NC(C)=O)cc1)C(F)(F)F (stereo unspecified)	-0.0276
CC(C)C(=O)NNC(=O)c1ccccn1	-0.197
O=[N+]([O-])c1ccccc1Sc1nccn1Cc1ccccc1	-0.0656
COc1ccccc1C(=O)n1nc(-c2ccccc2)nc1NCc1ccco1	-0.67
COCCN(C(=O)CC(C)(C)C)c1nnc(-c2cccnc2)s1	-0.069
O=C(Cc1sc(-c2ccccc2Cl)nc1-c1ccccc1)Nc1ccc(F)cc1	0.407
O=C(c1ccc(-n2c(SCc3cc(F)ccc3F)nc3ccccc3c2=O)cc1)N1CCOCC1	-0.129
CCC(=O)NC(=S)Nc1ccc(S(=O)(=O)NC(C)C)cc1	-0.145
CC/C(C)=N\N=C\c1c(O)n(CC)c2cc(C3=NNC(=O)CC3)ccc12	-0.413
CC(=O)/C(=C\Nc1ccc(OCc2ccccc2)cc1)c1ccccc1	0.0776
CC1(C)CC(=O)C2=C(C1)N(c1ccccc1)C(N)=C(C#N)C2c1ccsc1 (stereo unspecified)	active: -3.95
CCCCN(C)C(=O)C(Cc1ccccc1)NS(=O)(=O)c1ccc2c(c1)CCC(=O)N2 (stereo unspecified)	0.0641
Cc1ccc(S(=O)(=O)CCc2nc3ccccc3n2CCC#N)cc1	-0.167
CNC(=O)c1cc2c(s1)CCCCCC2	-0.211
COc1cc(C(=O)NCCN2CCOCC2)cc(OC)c1OC	-0.821
Cc1ccc(C)c(N(C)C(=O)COc2cc(=O)n(C)c3ccccc23)c1	-0.0854
CC1=CCC(/C=N\Nc2nnc3c(n2)[nH]c2ccccc23)CC1 (stereo unspecified)	-0.285
O=C(NCCc1ccccc1)c1ccc(=O)[nH]c1	-0.179
NS(=O)(=O)c1cccnc1Nc1cccc(Cl)c1	0.214
Cc1nc2ncnn2c(C)c1CCC(=O)N1CCN(Cc2ccccc2)CC1	-0.498
CCc1cc(-c2n[nH]c(=S)n2CC(C)C)cs1	1.12
